The text below walks through data of ChEMBL document CHEMBL4888484, “Replenishing the malaria drug discovery pipeline: Screening and hit evaluation of the MMV Hit Generation Library 1 (HGL1) against asexual blood stage Plasmodium falciparum ,using a nano luciferase reporter read-out” (2022).

By % Inhibition is commonly meant the drop in the measured response relative to a control, in per cent.

Screen size: about 150,000 compounds; about 540 (0.36%) showed an effect of 50% or more. Some of the results follow.

The experiment concerns Plasmodium falciparum. Kind of experiment: Primary screen in NF54 nanoGlo assay, in single point, at 2uM, 72h; a lower Z score goes with more inhibition. Type of experiment: functional, Erythrocyte. The settings on record: timepoint 72 hour.
For `O=C1C[C@@H](c2ccc(F)c(F)c2)c2ccc(O)cc2N1`, the “% Inhibition” value amounted to 4% and the Z score is -0.51.

With `Cc1ccc(-c2ccccc2CN(Cc2cccnc2)C[C@@H]2CCC(=O)N2)o1`, the “% Inhibition” value is 4% and the Z score is listed as -0.63.

In the case of `Cc1cc(N[C@H](CO)Cc2ccccc2)n2nccc2n1`, the “% Inhibition” value is listed as -12% and the Z score worked out at 2.3.

For `CCn1c(=O)c(N2CCN(C(=O)Nc3cccc(C(F)(F)F)c3)CC2)nc2ccccc21`, the “% Inhibition” value was determined as 31% and the Z score is listed as -0.97.

As for `CCS(=O)(=O)N1CCN(c2nc[nH]n2)CC1`, the “% Inhibition” value is given as -4% and the Z score is 0.78.

In the case of `CS(=O)(=O)C1CC2CCC(C1)N2S(=O)(=O)c1cccc(-c2ccc(Cl)cc2)c1` (stereo not drawn), the “% Inhibition” value is listed as -14% and the Z score was determined as 1.84.

Regarding `Cc1cccc(CN2CCN(CC3CCCCC3)[C@@H](CCO)C2)n1`, the “% Inhibition” value is reported as -6% and the Z score came out at 0.88.

Turning to `CCCC[C@H](NC(=O)CNc1ccc(F)cc1)c1cccnc1`, the “% Inhibition” value is -11% and the Z score is listed as 2.02.

For the compound `COC(=O)c1cccc2c1OCCN2C(=O)c1csnc1C`, the “% Inhibition” value was -8% and the Z score is on record as 1.26.

For `CCn1ncnc1CN[C@@H](C)c1nncn1CCOC`, the “% Inhibition” value is given as -1% and the Z score worked out at 0.11.

In the case of `Cc1n[nH]c2c1[C@H](c1cc(C(C)C)no1)CC(=O)N2`, the “% Inhibition” value is -13% and the Z score turned out to be 1.7.

Regarding `CCCC1(CCC)NC(=O)N(Cc2nc(N)nc(N(C)C)n2)C1=O`, the “% Inhibition” value was -9% and the Z score worked out at 1.1.

For the compound `N#Cc1ccnc(O[C@H]2CCCN(C(=O)COc3cccc(C(F)(F)F)c3)C2)c1`, the “% Inhibition” value is -6% and the Z score is reported as 0.97.

As to `Cc1nc(C(C)(C)NCC#N)sc1C`, the “% Inhibition” value was -9% and the Z score is 0.92.

Turning to `CC(C)(C)OC(=O)[C@@H](NCc1ccc(F)cc1)c1ccccc1`, the “% Inhibition” value is listed as -19% and the Z score was determined as 2.52.

Turning to `CS(=O)(=O)N1CCN(c2nc(-c3ccsc3)cs2)CC1`, the “% Inhibition” value is given as -10% and the Z score stood at 1.35.

As to `O=C(CCC(=O)c1ccc2c(c1)OCCO2)NCc1nnc2ccccn12`, the “% Inhibition” value is on record as -9% and the Z score amounted to 1.01.

With `O=C(NS(=O)(=O)C1C[C@@H]2CC[C@H]1C2)c1ccnn1CC(F)F` (stereo partly drawn), the “% Inhibition” value is reported as -1% and the Z score turned out to be 0.24.

Consider `CC(C)(C)OC(=O)Cc1cccc(NCc2c[nH]nc2-c2cccnc2)c1`, for which the “% Inhibition” value is reported as -5% and the Z score is 0.54.

Regarding `O=C(CC(F)(F)C(F)F)c1cccnc1`, the “% Inhibition” value was -38% and the Z score worked out at 4.41.

For `O=C(c1ccc(=O)[nH]c1)N1CCC(COCc2ccccc2)CC1`, the “% Inhibition” value was -10% and the Z score was determined as 1.39.

Take `CN(C)c1ccc(-c2c3c([nH]c(=O)c2C#N)CCCC3)cc1`: the “% Inhibition” value is listed as -15% and the Z score is on record as 1.91.

`CC(C)c1nc(N2C3CCC2CC(O)C3)c2cc[nH]c2n1` (stereo not drawn): the “% Inhibition” value came to 0% and the Z score was 0.05.

`Cn1ccc(NC(=O)CNC(=O)c2cccc(OC(F)F)c2)n1`: the “% Inhibition” value is 3% and the Z score is reported as -0.43.

Regarding `O=C(NCc1ccco1)/C(=C/c1cn(-c2ccccc2)nc1-c1ccc(F)cc1)NC(=O)c1ccc(Cl)cc1Cl`, the “% Inhibition” value was -15% and the Z score was 1.79.

As for `Cc1cc(CS(=O)(=O)Cc2ccc3c(c2)CCC3)no1`, the “% Inhibition” value amounted to 5% and the Z score was -0.79.

For the compound `CCC=C(C)C(=O)NCc1ccccn1`, the “% Inhibition” value is -1% and the Z score came out at 0.08.

As for `O=C(CCc1cnccn1)NC[C@@H]1COc2ccccc2C1`, the “% Inhibition” value is -10% and the Z score was 0.97.

In the case of `COc1ccc(-n2c(Cc3nnn[nH]3)n[nH]c2=O)c(C)c1`, the “% Inhibition” value is recorded as -5% and the Z score is on record as 0.94.

As for `Cc1ccc(-c2cc(C(=O)N3CC(OCc4ccc(F)cc4)C3)[nH]n2)s1`, the “% Inhibition” value is -21% and the Z score was determined as 2.56.

As to `CC(C)n1ccc(NC(=O)NC[C@H]2CCC[C@@H]2O)n1`, the “% Inhibition” value is listed as -2% and the Z score was 0.32.

Take `Clc1cnc(N2CC[C@H](N3CCCC3)C2)c(Cl)c1`: the “% Inhibition” value was -10% and the Z score was 1.

Turning to `Cc1nn(-c2ccccc2)c2sc(C(=O)Nc3nc(-c4cccs4)cs3)cc12`, the “% Inhibition” value is 23% and the Z score is on record as -2.57.

`CCOc1ccccc1NC(=O)Cn1cc(-c2ccccc2)c2ncn(C3CC3)c(=O)c21`: the “% Inhibition” value is reported as -1% and the Z score is 0.11.

`CCCc1nnc(N2CCC3(CCC(=O)N(CCc4ccccn4)C3)CC2)s1`: the “% Inhibition” value turned out to be 3% and the Z score is -0.59.

As for `Cc1nn(CC(=O)N2CCNC(=O)C2)c(=O)n1CCc1ccccc1`, the “% Inhibition” value is 3% and the Z score was -0.37.

`COc1ccc(OCC(=O)N2CC(OCc3ccccc3F)C2)cc1`: the “% Inhibition” value is on record as -7% and the Z score is reported as 1.12.

`CC1(C(=O)Nc2ccc(F)cc2F)CNC1`: the “% Inhibition” value worked out at 0% and the Z score is on record as 0.03.

As for `CCOC1CC(NC(=O)c2ccc(-c3nnc(C)[nH]3)cc2)C12CCC2` (stereo not drawn), the “% Inhibition” value came to 11% and the Z score was -1.33.

As to `CC(C)CN(CCC(=O)NC(C)C)c1nc(-c2ccco2)nc2ccccc12`, the “% Inhibition” value is recorded as -22% and the Z score is 3.21.

On to `CCS(=O)(=O)Nc1c(C(F)(F)F)nn(C)c1Cl`, for which the “% Inhibition” value is -3% and the Z score amounted to 0.49.

Turning to `CCOC(=O)C1CCN(CN2C(=O)C3(OCC(C)(c4ccccc4)CO3)c3ccccc32)CC1` (stereo not drawn), the “% Inhibition” value was 8% and the Z score is -1.02.

For the compound `O=C(NCc1cccc(Cl)c1)c1cccn2c(=O)c3ccc(Cl)cc3nc12`, the “% Inhibition” value was -11% and the Z score was found to be 1.26.

For the compound `Cc1c(O)cccc1-c1nc([C@@H]2CCN2C(=O)OC(C)(C)C)no1`, the “% Inhibition” value is -3% and the Z score was 0.47.

With `O=C(NCc1nccn1CCCc1ccccc1)N1CC2CCC1C2` (stereo not drawn), the “% Inhibition” value is reported as -3% and the Z score amounted to 0.28.

As to `Cc1cccc(NC(=O)C2(N(Cc3ccco3)C(=O)Cc3cc4ccccc4[nH]3)CCCCC2)c1`, the “% Inhibition” value was found to be 21% and the Z score is listed as -2.39.

For the compound `CO[C@@]12CC[C@@H](NC(C)=O)C[C@@H]1N(C(=O)CN1Cc3ccccc3C1)CC2`, the “% Inhibition” value is recorded as -5% and the Z score was found to be 0.76.

For `Cc1c(Cl)cccc1CNC(=O)N1CCNC(=O)C1`, the “% Inhibition” value is -3% and the Z score was 0.46.

For `COc1ccc(NC(=O)c2ccc3ccccc3c2)cc1S(=O)(=O)N1CCOCC1`, the “% Inhibition” value is reported as -8% and the Z score was 1.55.

Regarding `CCC[C@H]1CN(c2nnc(C)s2)C[C@@H]1NC(=O)C1CCOCC1`, the “% Inhibition” value is -6% and the Z score came out at 1.17.

As to `Cc1cc(CN2CC[C@H](c3nnc[nH]3)C2)n(C)n1`, the “% Inhibition” value is 0% and the Z score is reported as -0.03.

Consider `O=C(CNc1ccc(Cl)c(Cl)c1)N1CCC(Cc2ccccc2)CC1`, for which the “% Inhibition” value worked out at 15% and the Z score is -1.84.

Turning to `Cc1ccc(F)c(NC(=O)N2CCCC[C@@H]2CCN2CCN(C)CC2)c1`, the “% Inhibition” value is on record as -2% and the Z score amounted to 0.3.

Take `CC(C)(C)c1cnc(CCC(=O)N[C@H]2CCCCC23CCCC3)o1`: the “% Inhibition” value was -13% and the Z score turned out to be 1.21.
